# In the supplement of paper PMC4604168 (melanoma cell lines):
# Some of the results follow. Repeats are few or missing, and single values can be far off.
# Tested on: WM451Lu
# Test: cell count relative to DMSO control; melanoma cells; higher = more viable cells
# Conditions: library dose: low library concentration; 72 h; first compound 0.4 µM
# 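Further: cell number obtained by counting DAPI-stained nuclei in high-throughput microscope images with image analysis software, screen run in 1,536-well plates.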
row,SMILES,cell count
1,Cn1sc(=O)n(Cc2ccccc2)c1=O + Cn1c(Nc2ccc(C(F)(F)F)cc2)nc2cc(Oc3ccnc(-c4ncc(C(F)(F)F)[nH]4)c3)ccc21 [CHIR265] (partner dose 0.08 µM),96.2%
2,CCCCCCCCCCCCCCCCCCOP(=O)([O-])OC1CC[N+](C)(C)CC1 [Perifosine] + Clc1ccc(Nc2nnc(Cc3ccncc3)c3ccccc23)cc1 [vatalanib] (partner dose 2 µM),115%
3,C[C@@H](N)c1ccc(C(=O)Nc2ccnc3[nH]ccc23)cc1 + Nc1cccc2c1CN(C1CCC(=O)NC1=O)C2=O [lenalidomide] (partner dose 1 µM),90.5%
4,CCCCCCCCCCCCCCCCCCOP(=O)([O-])OC1CC[N+](C)(C)CC1 [Perifosine] + NC1(c2ccc(-c3nc4ccn5c(=O)[nH]nc5c4cc3-c3ccccc3)cc2)CCC1 [MK2206] (partner dose 0.4 µM),86.3%
5,Cn1sc(=O)n(Cc2ccccc2)c1=O + NC(=O)c1ccc(N(C(N)=O)c2c(F)cccc2F)nc1-c1ccc(F)cc1F [VX702] (partner dose 0.4 µM),86.6%
6,Cn1sc(=O)n(Cc2ccccc2)c1=O + CC(=O)c1c(C)c2cnc(Nc3ccc(N4CCNCC4)cn3)nc2n(C2CCCC2)c1=O [palbociclib] (partner dose 0.04 µM),79.9%
7,Cn1sc(=O)n(Cc2ccccc2)c1=O + COc1ccc(-c2ccc3c(N4CCOCC4)nc(N4C[C@@H](C)O[C@@H](C)C4)nc3n2)cc1CO [KU0063794] (partner dose 0.02 µM),107%
8,Cn1sc(=O)n(Cc2ccccc2)c1=O + O=C1NC(=O)/C(=C/c2ccc(-c3ccc(F)cc3O)o2)S1 [AS252424] (partner dose 1 µM),104%
9,Cn1sc(=O)n(Cc2ccccc2)c1=O + COc1cc(Nc2ncc(F)c(Nc3ccc4c(n3)NC(=O)C(C)(C)O4)n2)cc(OC)c1OC [Tamatinib] (partner dose 0.4 µM),90%
10,C[C@@H](N)c1ccc(C(=O)Nc2ccnc3[nH]ccc23)cc1 + Nc1nc(F)nc2c1ncn2[C@@H]1O[C@H](CO)[C@@H](O)[C@@H]1O [fludarabine] (partner dose 0.2 µM),60.1%
11,Cn1sc(=O)n(Cc2ccccc2)c1=O + Nc1nc(F)nc2c1ncn2[C@@H]1O[C@H](CO)[C@@H](O)[C@@H]1O [fludarabine] (partner dose 0.2 µM),45.7%
12,Cn1sc(=O)n(Cc2ccccc2)c1=O + c1cc(-c2cnn3cc(-c4ccc(OCCN5CCCCC5)cc4)cnc23)ccn1 [Dorsomorphin] (partner dose 0.4 µM),87.8%
13,Cn1sc(=O)n(Cc2ccccc2)c1=O + C=CCn1c(=O)c2cnc(Nc3ccc(N4CCN(C)CC4)cc3)nc2n1-c1cccc(C(C)(C)O)n1 [MK1775] (partner dose 0.02 µM),102%
14,Cn1sc(=O)n(Cc2ccccc2)c1=O + OCCn1cc(-c2cnc3nnn(Cc4ccc5ncccc5c4)c3n2)cn1 [PF04217903] (partner dose 1 µM),84.4%
15,Cn1sc(=O)n(Cc2ccccc2)c1=O + Cn1c(=O)n(-c2ccc(C(C)(C)C#N)cc2)c2c3cc(-c4cnc5ccccc5c4)ccc3ncc21 [NVP-BEZ235] (partner dose 0.004 µM),95.8%
16,Cn1sc(=O)n(Cc2ccccc2)c1=O + C#Cc1cccc(Nc2ncnc3cc(OCCOC)c(OCCOC)cc23)c1 [erlotinib] (partner dose 0.8 µM),91.9%
17,Cn1sc(=O)n(Cc2ccccc2)c1=O + COC(=O)c1sccc1S(=O)(=O)Nc1ccc(Nc2ccccc2)cc1OC [GSK0660] (partner dose 1 µM),94.5%
18,C[C@@H](N)c1ccc(C(=O)Nc2ccnc3[nH]ccc23)cc1 + COc1ccc(Cl)c(Nc2nc3ccccc3nc2NS(=O)(=O)c2cccc(NC(=O)C(C)(C)N)c2)c1 [XL147] (partner dose 0.8 µM),83.2%
19,C[C@@H](N)c1ccc(C(=O)Nc2ccnc3[nH]ccc23)cc1 + CCc1ccc(CCOc2ccc(CC3SC(=O)NC3=O)cc2)nc1 [pioglitazone] (partner dose 2 µM),87%
20,CCCCCCCCCCCCCCCCCCOP(=O)([O-])OC1CC[N+](C)(C)CC1 [Perifosine] + COc1ccc(C2=N[C@@H](c3ccc(Cl)cc3)[C@@H](c3ccc(Cl)cc3)N2C(=O)N2CCNC(=O)C2)c(OC(C)C)c1 [Nutlin-3] (partner dose 0.1 µM),105%
